In all, about 33,000 sequences were measured (“E-score (-0.5 to 0.5)”: median about -0.011, highest 2% from about 0.28 on). The list shows a part of the results.

In this assay the target is T1, Gcr1 (UniProt P07261).
T1 sequence: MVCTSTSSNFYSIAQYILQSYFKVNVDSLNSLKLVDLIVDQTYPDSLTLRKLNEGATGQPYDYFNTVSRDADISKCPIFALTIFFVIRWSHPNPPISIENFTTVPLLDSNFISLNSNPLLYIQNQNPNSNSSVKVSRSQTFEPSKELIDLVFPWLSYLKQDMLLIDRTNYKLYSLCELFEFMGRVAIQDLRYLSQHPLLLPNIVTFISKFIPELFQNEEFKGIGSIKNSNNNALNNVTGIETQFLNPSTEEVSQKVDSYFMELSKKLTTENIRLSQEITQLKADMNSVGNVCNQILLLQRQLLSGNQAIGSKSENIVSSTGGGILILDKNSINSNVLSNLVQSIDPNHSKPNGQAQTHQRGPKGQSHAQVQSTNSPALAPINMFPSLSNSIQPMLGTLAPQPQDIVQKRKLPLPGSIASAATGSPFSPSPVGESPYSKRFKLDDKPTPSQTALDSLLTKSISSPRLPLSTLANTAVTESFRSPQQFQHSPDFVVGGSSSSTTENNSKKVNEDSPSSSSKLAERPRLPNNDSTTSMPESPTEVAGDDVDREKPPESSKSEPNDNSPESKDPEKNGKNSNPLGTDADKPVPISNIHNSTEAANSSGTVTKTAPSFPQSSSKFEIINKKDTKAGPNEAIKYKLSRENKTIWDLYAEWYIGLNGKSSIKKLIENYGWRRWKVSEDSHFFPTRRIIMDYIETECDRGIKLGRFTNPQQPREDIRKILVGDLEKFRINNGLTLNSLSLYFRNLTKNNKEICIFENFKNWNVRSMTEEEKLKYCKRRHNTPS
Nature of the assay: PBM E-score (8-mer binding enrichment) (E-score (-0.5 to 0.5)); higher = stronger / more preferred TF binding; most listed sequences are background and not binding sites. Conditions: protein concentration: 100 nM; construct: GST-full length. An outline of the steps: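 GST-tagged yeast TFs (full-length or DNA-binding domain) were made by PURExpress in vitro transcription/translation and applied at about 100-200 nM to universal all-10-mer Agilent arrays. The arrays were made double-stranded by primer extension, on fresh or once-stripped slides. Bound protein was detected with fluorescent anti-GST, and scans were normalised with masliner. Each ungapped eight-base word, pooled with its reverse complement, received an E-score (modified Wilcoxon-Mann-Whitney statistic) from the Universal PBM Analysis Suite.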
On to CGACGATC, for which the “PBM E-score” value was -0.0215. The result for CCCATTTA reads 0.293; that for AGCCACAT, 0.0067.

Consider CGCGACAA, for which the “PBM E-score” value came out at 0.062.

For AACAGTGT, the “PBM E-score” value was -0.0983. For CGGCGCAA the value was -0.202; for CCACATAA, 0.109.

TAATATTA: the “PBM E-score” value was 0.0519. For ATCGCAAT the value was -0.0128; for CCTCTCGC, -0.0389; for GATTTGGC, -0.239. The result for CTCACTTC reads -0.21; that for ATGCCCGA, -0.135.

On to AGCATAGA, for which the “PBM E-score” value is -0.122. The result for ACGTCACT reads -0.0962; that for CGTAAACC, -0.125. The result for TGAGGTAA reads 0.102; that for ATGGGGTC, -0.00428; that for GCTTAAGC, -0.235. The result for CTCGGATA reads -0.037. For CTTCTTTC, the “PBM E-score” value was determined as 0.0982. For GCGCGAGA the value was -0.057; for CGTCAAGA, 0.0464; for TAGACCTA, -0.0537. For CGGAAACA the value was 0.124. The result for GAAGTCTC reads -0.158; that for AGGCCGGA, -0.277; that for GATACACC, -0.0161. For ACGAACGT, the “PBM E-score” value was -0.0353. On to CATAGACG, for which the “PBM E-score” value is 0.0886. Turning to ATGATCAT, the “PBM E-score” value was determined as 0.125.

CAATAATC: the “PBM E-score” value is -0.0899. For AAAGGAGG the value was 0.107; for CGAGGGCC, -0.159; for AGGTATAG, -0.00638.

ATCCGAGA: the “PBM E-score” value was 0.135. The result for CTACCTGC reads -0.00056; that for CACGACCA, -0.235; that for CGCCCAGC, -0.0955. With GAGTACCC, the “PBM E-score” value was -0.0644. For AGGCCGTC the value was -0.167. On to CACAGCCA, for which the “PBM E-score” value is -0.286. The result for AGCTGGGA reads -0.0169; that for AGCCATCC, -0.0382; that for CTGAACAC, 0.0232.

Regarding GCGTAGGA, the “PBM E-score” value is -0.0379. For AGTTGCTC the value was -0.0698. With GCGTCAAA, the “PBM E-score” value was 0.079. The result for CGGTTACC reads 0.0927; that for ACACGCGT, 0.138; that for AAATGACC, -0.0753.

For the sequence AAAACTTT, the “PBM E-score” value is -0.0798.

In the case of CACTGGTC, the “PBM E-score” value was -0.0838. The result for AACGGCCA reads -0.0219; that for ATATTAAG, 0.178; that for GCAACGCC, 0.0857.

Turning to GGCGGGGA, the “PBM E-score” value was found to be 0.304. For ACAGTGGT the value was 0.0442; for CCGATCTA, -0.0326. For the sequence ATCCTTTC, the “PBM E-score” value is -0.0852.

As to GGCCTAAA, the “PBM E-score” value was -0.143.

Take ACTGTCGA: the “PBM E-score” value was -0.0903. The result for GACGTCGA reads -0.0213.

As to ACAGACAG, the “PBM E-score” value turned out to be 0.173. For ACCAGTGG the value was 0.0644. In the case of GAATGCCA, the “PBM E-score” value is -0.0116. Regarding AGTAGCGG, the “PBM E-score” value amounted to 0.0573.

Take CGAAACGC: the “PBM E-score” value is -0.157.

On to GGGTCGAA, for which the “PBM E-score” value is 0.0379. For the sequence ATACCGGA, the “PBM E-score” value was 0.222. The result for CGCAGAAG reads 0.0198; that for AGATCTCC, -0.0801.

In the case of AGGCCGGG, the “PBM E-score” value is -0.13.

In the case of CAAGTGCG, the “PBM E-score” value is -0.0664. Consider CGAATACC, for which the “PBM E-score” value turned out to be 0.0857.

Consider AGATCCAA, for which the “PBM E-score” value was found to be 0.186.

Turning to ATTGATCC, the “PBM E-score” value is -0.0161. As to TAACGTTA, the “PBM E-score” value came out at 0.0661. For TCGCGCGA the value was 0.0435; for AGAACTAG, -0.0756; for CTGTGCTA, -0.0874. The result for ACGACTGC reads -0.179. The result for AAACTCAC reads 0.0219; that for ATAGATTG, -0.00739; that for CGCCAAAG, 0.0195.

In the case of GAGCCACA, the “PBM E-score” value came out at 0.131.

The values above are taken from the supplement of paper PMC3334620.
